Measured values from the supplement of paper PMC10037445.
“And” between values parts separate entries of the source, which are not always exact repeats. Equal values may be shown once. ± gives the standard deviation of the averaged measurements. The full ranking holds about 2,900 compounds; the median of “IRF Lucia reporter activity, fold change vs agonist alone” is about 0.9, and the highest 2% start at about 2.8. This is one part of the list.

Columns and labels:
[1] = tested on: RAW-Dual; experiment: IRF Lucia reporter activity, fold change vs agonist alone; cytotoxicity flag (confluency mask): not cytotoxic; higher = enhanced IRF activity
How it was run: (§1)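 Cytotoxic wells were those whose IncuCyte confluency was below 70% of agonist controls in both mask sets. The cells were RAW-Dual macrophages at 50,000 cells/well in DMEM on 384-well plates, dosed with 50 nL of library stock by pin tool, stimulated with a PRR agonist 1 h later, and kept at 37 °C, 5% CO2 for 20 hours. IRF and NF-κB reporter activity, as fold change over agonist-alone wells, came from supernatant read by QuantiLuc luminescence and QuantiBlue absorbance, respectively.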

[2] = tested on: RAW-Dual; experiment: IRF Lucia reporter activity, fold change vs agonist alone; higher = enhanced IRF activity; settings: agonist: MPLA (TLR4) […]
How it was run: as §1

[3] = tested on: RAW-Dual; experiment: IRF Lucia reporter activity, fold change vs agonist alone; cytotoxicity flag (confluency mask): cytotoxic (confluency <70% of control); higher = enhanced IRF activity
How it was run: as §1

[4] = agonist: 3'3'-cGAMP (STING) 10 ug/mL
[5] = library stock concentration (final ~1000-fold dilution): 10 mM, cytotoxicity flag (confluency mask): not cytotoxic
[6] = library stock concentration (final ~1000-fold dilution): 10 mM, cytotoxicity flag (confluency mask): cytotoxic (confluency <70% of control)

In the case of `C=C1CCCC2(C)C=C3OC(=O)C(C)=C3CC12` (stereo not drawn) (library stock concentration (final ~1000-fold dilution): 10 mM), the “IRF Lucia reporter activity” value [1, 4] is reported as 0.957 and the “IRF Lucia reporter activity” value ([1]; agonist: LPS (TLR4) 0.1 ug/mL) is reported as 0.665.

In the case of `O=C(O)c1cc(C(F)(F)F)ccc1N1CCC(OCc2ccccn2)C1` (stereo not drawn) (library stock concentration (final ~1000-fold dilution): 10 mM), the “IRF Lucia reporter activity” value [1, 4] is reported as 0.681 and the “IRF Lucia reporter activity” value ([1]; agonist: LPS (TLR4) 0.1 ug/mL) is reported as 1.88.

With `O=C(O)c1cc(C(F)(F)F)ccc1N1CCC(OCc2ccccn2)C1` (stereo not drawn) the “IRF Lucia reporter activity” value [2, 5] was 1.67.

In the case of `CC(=O)OC1CCC2(C)C(CCC3(C)C2C(=O)C=C2C4C(C)C(C)CCC4(C)CCC23C)C1(C)C(=O)O` (stereo not drawn) (library stock concentration (final ~1000-fold dilution): 10 mM), the “IRF Lucia reporter activity” value [1, 4] is reported as 0.994 and the “IRF Lucia reporter activity” value ([1]; agonist: LPS (TLR4) 0.1 ug/mL) is reported as 0.483.

With `CC(C)C[C@H](NC(=O)[C@H](Cc1ccccc1)NC(=O)c1cnccn1)B(O)O` the “IRF Lucia reporter activity” value [2, 6] was 2.29.

With `CC(C)C[C@H](NC(=O)[C@H](Cc1ccccc1)NC(=O)c1cnccn1)B(O)O` (library stock concentration (final ~1000-fold dilution): 10 mM) the “IRF Lucia reporter activity” value [3, 4] was 1.12 and the “IRF Lucia reporter activity” value ([3]; agonist: LPS (TLR4) 0.1 ug/mL) was 2.41.

In the case of `COC(=O)C1CC2=CC(=O)CCC2(C)C23OC2CC2(C)C(CCC24CCC(=O)O4)C13` (stereo not drawn) (library stock concentration (final ~1000-fold dilution): 2 mM), the “IRF Lucia reporter activity” value [1, 4] is reported as 0.773 and the “IRF Lucia reporter activity” value ([1]; agonist: LPS (TLR4) 0.1 ug/mL) is reported as 0.56.

With `COC(=O)C1CC2=CC(=O)CCC2(C)C23OC2CC2(C)C(CCC24CCC(=O)O4)C13` (stereo not drawn) the “IRF Lucia reporter activity” value ([2]; library stock concentration (final ~1000-fold dilution): 2 mM, cytotoxicity flag (confluency mask): not cytotoxic) was 1.19.

With `CS(=O)(=O)c1ccc(C(=O)Nc2ccc(Cl)c(-c3ccccn3)c2)c(Cl)c1` the “IRF Lucia reporter activity” value [2, 5] was 1.01.

With `CS(=O)(=O)c1ccc(C(=O)Nc2ccc(Cl)c(-c3ccccn3)c2)c(Cl)c1` (library stock concentration (final ~1000-fold dilution): 10 mM) the “IRF Lucia reporter activity” value [1, 4] was 0.827 and the “IRF Lucia reporter activity” value ([1]; agonist: LPS (TLR4) 0.1 ug/mL) was 1.01.

For `COc1ccc(-c2coc3cc(O)ccc3c2=O)cc1`, the “IRF Lucia reporter activity” value [2, 5] was 1.13.

In the case of `COc1ccc(-c2coc3cc(O)ccc3c2=O)cc1` (library stock concentration (final ~1000-fold dilution): 10 mM), the “IRF Lucia reporter activity” value [1, 4] is reported as 0.992 and the “IRF Lucia reporter activity” value ([1]; agonist: LPS (TLR4) 0.1 ug/mL) is reported as 1.02.

For `CN1CCN(S(=O)(=O)c2ccc(-c3cnc(N)c(C(=O)Nc4cccnc4)n3)cc2)CC1`, the “IRF Lucia reporter activity” value [2, 5] was 0.484.

For `CN1CCN(S(=O)(=O)c2ccc(-c3cnc(N)c(C(=O)Nc4cccnc4)n3)cc2)CC1` (library stock concentration (final ~1000-fold dilution): 10 mM), the “IRF Lucia reporter activity” value [1, 4] was 0.198 and the “IRF Lucia reporter activity” value ([1]; agonist: LPS (TLR4) 0.1 ug/mL) was 0.414.

`Nc1ccc2ncnc(NCCc3ccc(Oc4ccccc4)cc3)c2c1` was tested, and the “IRF Lucia reporter activity” value [2, 5] was 1.17 ± 0.22.

In the case of `Nc1ccc2ncnc(NCCc3ccc(Oc4ccccc4)cc3)c2c1` (library stock concentration (final ~1000-fold dilution): 10 mM), the “IRF Lucia reporter activity” value ([1]; agonist: LPS (TLR4) 0.1 ug/mL) is reported as 1.24 and 0.86.

In the case of `CCOC(=O)N1CCC(=C2c3ccc(Cl)cc3CCc3cccnc32)CC1` (library stock concentration (final ~1000-fold dilution): 10 mM), the “IRF Lucia reporter activity” value [3, 4] is reported as 0.821 and the “IRF Lucia reporter activity” value ([3]; agonist: LPS (TLR4) 0.1 ug/mL) is reported as 0.829.

`CCOC(=O)N1CCC(=C2c3ccc(Cl)cc3CCc3cccnc32)CC1` was tested, and the “IRF Lucia reporter activity” value [2, 6] was 0.615.

In the case of `COc1cc2c(cc1Cc1cccc(Cl)c1F)c(=O)c(C(=O)O)cn2C(CO)C(C)C` (stereo not drawn) (library stock concentration (final ~1000-fold dilution): 10 mM), the “IRF Lucia reporter activity” value [1, 4] is reported as 1.15 and the “IRF Lucia reporter activity” value ([1]; agonist: LPS (TLR4) 0.1 ug/mL) is reported as 0.931.

For `COc1cc2c(cc1Cc1cccc(Cl)c1F)c(=O)c(C(=O)O)cn2C(CO)C(C)C` (stereo not drawn), the “IRF Lucia reporter activity” value [2, 5] was 1.04.

For `CC1c2cccc(O)c2C(=O)C2=C(O)C3(O)C(=O)C(C(N)=O)=C(O)C(N(C)C)C3C(O)C21` (stereo not drawn) (library stock concentration (final ~1000-fold dilution): 10 mM), the “IRF Lucia reporter activity” value [1, 4] was 0.96 and the “IRF Lucia reporter activity” value ([1]; agonist: LPS (TLR4) 0.1 ug/mL) was 0.682.

In the case of `CC1c2cccc(O)c2C(=O)C2=C(O)C3(O)C(=O)C(C(N)=O)=C(O)C(N(C)C)C3C(O)C21` (stereo not drawn), the “IRF Lucia reporter activity” value [2, 5] is reported as 0.975.

For `CCc1ccc(NC(=O)Nc2ccccc2)cc1` (library stock concentration (final ~1000-fold dilution): 10 mM), the “IRF Lucia reporter activity” value [1, 4] was 0.658 and the “IRF Lucia reporter activity” value ([1]; agonist: LPS (TLR4) 0.1 ug/mL) was 0.658.

`O=C(NOCC1CC1)c1ccc(F)c(F)c1Nc1ccc(I)cc1Cl` (library stock concentration (final ~1000-fold dilution): 10 mM) was tested, and the “IRF Lucia reporter activity” value [1, 4] was 0.525 and the “IRF Lucia reporter activity” value ([1]; agonist: LPS (TLR4) 0.1 ug/mL) was 2.5.

With `O=C(NOCC1CC1)c1ccc(F)c(F)c1Nc1ccc(I)cc1Cl` the “IRF Lucia reporter activity” value [2, 5] was 2.05.

For `CS(=O)(=O)CCNCc1ccc(-c2ccc3ncnc(Nc4ccc(OCc5cccc(F)c5)c(Cl)c4)c3c2)o1.Cc1ccc(S(=O)(=O)O)cc1.Cc1ccc(S(=O)(=O)O)cc1.O`, the “IRF Lucia reporter activity” value [2, 5] was 1.8.

`CS(=O)(=O)CCNCc1ccc(-c2ccc3ncnc(Nc4ccc(OCc5cccc(F)c5)c(Cl)c4)c3c2)o1.Cc1ccc(S(=O)(=O)O)cc1.Cc1ccc(S(=O)(=O)O)cc1.O` (library stock concentration (final ~1000-fold dilution): 10 mM) was tested, and the “IRF Lucia reporter activity” value [1, 4] was 0.259 and the “IRF Lucia reporter activity” value ([1]; agonist: LPS (TLR4) 0.1 ug/mL) was 2.46.

With `NC(=O)c1ccccc1O` (library stock concentration (final ~1000-fold dilution): 10 mM) the “IRF Lucia reporter activity” value [1, 4] was 1.01 and the “IRF Lucia reporter activity” value ([1]; agonist: LPS (TLR4) 0.1 ug/mL) was 0.699.
